This is one part of the list.
How the values were obtained:
Experiment in all cases: glycan array binding signal (z-score within array); higher = stronger binding
Details in all cases: glycan notation: IUPAC condensed, linker removed
[1] = target: Neu5Ac(a2-3)Gal(b1-3)GlcNAc6S
Summary of the method: (§1)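 From the Consortium for Functional Glycomics database, 3228 arrays were curated, keeping only those whose protein sequence was available. Binding is given as a within-array Z-score averaged across arrays sharing a protein sequence and across linkers. Negative Z-scores can be read as non-binding.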

[2] = target: Neu5Ac(a2-3)Gal(b1-3)[Fuc(a1-4)]GlcNAc
Summary of the method: as §1

[3] = target: Neu5Ac(a2-3)Gal(b1-3)[Fuc(a1-4)]GlcNAc(b1-3)Gal(b1-3)[Fuc(a1-4)]GlcNAc
Summary of the method: as §1

[4] = target: Neu5Ac(a2-3)Gal(b1-3)[Fuc(a1-4)]GlcNAc(b1-3)Gal(b1-4)[Fuc(a1-3)]GlcNAc
Summary of the method: as §1

[5] = target: Neu5Ac(a2-3)Gal(b1-3)[Neu5Ac(a2-3)Gal(b1-4)]GlcNAc
Summary of the method: as §1

[6] = target: Neu5Ac(a2-3)Gal(b1-3)[Neu5Ac(a2-6)]GalNAc
Summary of the method: as §1

[7] = target: Neu5Ac(a2-3)Gal(b1-3)[Neu5Ac(a2-6)]GlcNAc(b1-3)[Fuc(a1-3)[Gal(b1-4)]GlcNAc(b1-6)]Gal(b1-4)Glc
Summary of the method: as §1

[8] = target: Neu5Ac(a2-3)Gal(b1-4)Glc
Summary of the method: as §1

[9] = target: Neu5Ac(a2-3)Gal(b1-4)GlcNAc
Summary of the method: as §1

[10] = target: Neu5Ac(a2-3)Gal(b1-4)GlcNAc(b1-2)Man
Summary of the method: as §1

[11] = target: Neu5Ac(a2-3)Gal(b1-4)GlcNAc(b1-2)Man(a1-3)[GlcNAc(b1-2)Man(b1-4)GlcNAc(b1-2)Man(a1-6)]Man(b1-4)GlcNAc(b1-4)GlcNAc
Summary of the method: as §1

[12] = target: Neu5Ac(a2-3)Gal(b1-4)GlcNAc(b1-2)Man(a1-3)[Neu5Ac(a2-3)Gal(b1-4)GlcNAc(b1-2)Man(a1-6)]Man(b1-4)GlcNAc(b1-4)[Fuc(a1-6)]GlcNAc
Summary of the method: as §1

[13] = target: Neu5Ac(a2-3)Gal(b1-4)GlcNAc(b1-2)Man(a1-3)[Neu5Ac(a2-6)Gal(b1-4)GlcNAc(b1-2)Man(a1-6)]Man(b1-4)GlcNAc(b1-4)GlcNAc
Summary of the method: as §1

[14] = target: Neu5Ac(a2-3)Gal(b1-4)GlcNAc(b1-2)[Neu5Ac(a2-3)Gal(b1-4)GlcNAc(b1-6)]Man(a1-6)[Neu5Ac(a2-3)Gal(b1-4)GlcNAc(b1-2)Man(a1-3)]Man(b1-4)GlcNAc(b1-4)GlcNAc
Summary of the method: as §1

[15] = target: Neu5Ac(a2-3)Gal(b1-4)GlcNAc(b1-3)Gal
Summary of the method: as §1

[16] = target: Neu5Ac(a2-3)Gal(b1-4)GlcNAc(b1-3)Gal(b1-3)GlcNAc
Summary of the method: as §1

[17] = target: Neu5Ac(a2-3)Gal(b1-4)GlcNAc(b1-3)Gal(b1-4)GlcNAc
Summary of the method: as §1

[18] = target: Neu5Ac(a2-3)Gal(b1-4)GlcNAc(b1-3)Gal(b1-4)GlcNAc(b1-3)Gal(b1-4)GlcNAc
Summary of the method: as §1

[19] = target: Neu5Ac(a2-3)Gal(b1-4)GlcNAc(b1-3)Gal(b1-4)[Fuc(a1-3)]GlcNAc
Summary of the method: as §1

[20] = target: Neu5Ac(a2-3)Gal(b1-4)GlcNAc(b1-3)GalNAc
Summary of the method: as §1

[21] = target: Neu5Ac(a2-3)Gal(b1-4)GlcNAc(b1-3)[Neu5Ac(a2-3)Gal(b1-4)GlcNAc(b1-6)]GalNAc
Summary of the method: as §1

[22] = target: Neu5Ac(a2-3)Gal(b1-4)GlcNAc(b1-6)GalNAc
Summary of the method: as §1

[23] = target: Neu5Ac(a2-3)Gal(b1-4)GlcNAc(b1-6)[Gal(b1-3)]GalNAc
Summary of the method: as §1

[24] = target: Neu5Ac(a2-3)Gal(b1-4)GlcNAc(b1-6)[Neu5Ac(a2-3)Gal(b1-3)]GalNAc
Summary of the method: as §1

[25] = target: Neu5Ac(a2-3)Gal(b1-4)GlcNAc6S
Summary of the method: as §1

[26] = target: Neu5Ac(a2-3)Gal(b1-4)[Fuc(a1-3)]GlcNAc
Summary of the method: as §1

[27] = target: Neu5Ac(a2-3)Gal(b1-4)[Fuc(a1-3)]GlcNAc(b1-3)Gal
Summary of the method: as §1

[28] = target: Neu5Ac(a2-3)Gal(b1-4)[Fuc(a1-3)]GlcNAc(b1-3)Gal(b1-4)GlcNAc
Summary of the method: as §1

[29] = target: Neu5Ac(a2-3)Gal(b1-4)[Fuc(a1-3)]GlcNAc(b1-3)Gal(b1-4)[Fuc(a1-3)]GlcNAc(b1-3)Gal(b1-4)[Fuc(a1-3)]GlcNAc
Summary of the method: as §1

[30] = target: Neu5Ac(a2-3)Gal(b1-4)[Fuc(a1-3)]GlcNAc(b1-3)GalNAc
Summary of the method: as §1

B1: StcE (Escherichia coli), O82882.2 (protein)
chain: ADNNSAIYFNTSQPINDLQGSLAAEVKFAQSQILPAHPKEGDSQPHLTSLRKSLLLVRPVKADDKTPVQVEARDDNNKILGTLTLYPPSSLPDTIYHLDGVPEGGIDFTPHNGTKKIINTVAEVNKLSDASGSSIHSHLTNNALVEIHTANGRWVRDIYLPQGPDLEGKMVRFVSSAGYSSTVFYGDRKVTLSVGNTLLFKYVNGQWFRSGELENNRITYAQHIWSAELPAHWIVPGLNLVIKQGNLSGRLNDIKIGAPGELLLHTIDIGMLTTPRDRFDFAKDKEAHREYFQTIPVSRMIVNNYAPLHLKEVMLPTGELLTDMDPGNGGWHSGTMRQRIGKELVSHGIDNANYGLNSTAGLGENSHPYVVAQLAAHNSRGNYANGIQVHGGSGGGGIVTLDSTLGNEFSHEVGHNYGLGHYVDGFKGSVHRSAENNNSTWGWDGDKKRFIPNFYPSQTNEKSCLNNQCQEPFDGHKFGFDAMAGGSPFSAANRFTMYTPNSSAIIQRFFENKAVFDSRSSTGFSKWNADTQEMEPYEHTIDRAEQITASVNELSESKMAELMAEYAVVKVHMWNGNWTRNIYIPTASADNRGSILTINHEAGYNSYLFINGDEKVVSQGYKKSFVSDGQFWKERDVVDTREARKPEQFGVPVTTLVGYYDPEGTLSSYIYPAMYGAYGFTYSDDSQNLSDNDCQLQVDTKEGQLRFRLANHRANNTVMNKFHINVPTESQPTQATLVCNNKILDTKSLTPAPEGLTYTVNGQALPAKENEGCIVSVNSGKRYCLPVGQRSGYSLPDWIVGQEVYVDSGAKAKVLLSDWDNLSYNRIGEFVGNVNPADMKKVKAWNGQYLDFSKPRSMRVVYK
[1]
  glycan array binding signal (z-score): -0.167
[2]
  glycan array binding signal (z-score): -0.328
[3]
  glycan array binding signal (z-score): 4.08
[4]
  glycan array binding signal (z-score): 1.98
[5]
  glycan array binding signal (z-score): 0.35
[6]
  glycan array binding signal (z-score): 8.93
[7]
  glycan array binding signal (z-score): -0.149
[8]
  glycan array binding signal (z-score): 0.019
[9]
  glycan array binding signal (z-score): 0.008
[10]
  glycan array binding signal (z-score): 0.576
[11]
  glycan array binding signal (z-score): -0.15
[12]
  glycan array binding signal (z-score): -0.122
[13]
  glycan array binding signal (z-score): -0.151
[14]
  glycan array binding signal (z-score): -0.117
[15]
  glycan array binding signal (z-score): -0.142
[16]
  glycan array binding signal (z-score): -0.139
[17]
  glycan array binding signal (z-score): -0.133
[18]
  glycan array binding signal (z-score): -0.539
[19]
  glycan array binding signal (z-score): -0.162
[20]
  glycan array binding signal (z-score): -0.123
[21]
  glycan array binding signal (z-score): -0.176
[22]
  glycan array binding signal (z-score): -0.157
[23]
  glycan array binding signal (z-score): -0.076
[24]
  glycan array binding signal (z-score): 0.105
[25]
  glycan array binding signal (z-score): 0.33
[26]
  glycan array binding signal (z-score): -0.176
[27]
  glycan array binding signal (z-score): 0.03
[28]
  glycan array binding signal (z-score): -0.478
[29]
  glycan array binding signal (z-score): 0.21
[30]
  glycan array binding signal (z-score): 0.08

Reference: the supplement of paper PMC8728848
